In all, about 44,000 compounds went through this assay and about 340 (0.77%) were called active. Roughly 5% stayed inconclusive and do not appear here. Calls follow the shape of the dose curve; as a rule, active = well fitted inhibition curve with a large enough effect; inconclusive = small, poorly fitted or top-dose-only effect; inactive = flat fitted curve, though single readings scatter. Some of the results follow.
Test: Acumen qHTS Assay for Inhibitors of the mTORC1 Signaling Pathway in MEF (Tsc2-/-, p53-/-) Cells: Sytravon;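 also: plate controls were DMSO for no effect and rapamycin for full effect; nearly all actives have a fitted effect of over 50% in size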
Settings: phospho-rpS6 immunofluorescence/PI, 24 h; series mostly up to 38.3 µM; activity change, negative = inhibition: at the top concentration
Outline: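 Compounds act on Tsc2-/-, p53-/- fibroblasts carrying an empty vector for 24 h before fixation and dual staining for phospho-S6 and DNA (propidium iodide). Values are percentages of cells above a rapamycin-defined pS6/PI threshold.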

Activity change, negative = inhibition, inactive:
CC1CCN(Cc2c(O)ccc3c(=O)c(-c4cccc(Cl)c4)c(C(F)(F)F)oc23)CC1 8.34%
CC(=O)c1cc2c(cc1NC(=O)c1c(C)nn(-c3ccc(C)cc3)c1-n1cccc1)OCO2 1.04%
Cc1ccc(S(=O)(=O)Cc2nc(-c3ccc(C(=O)NCc4ccccc4)cc3)oc2C)cc1 -3.91%
COc1ccc(OCCn2cc(C(=O)C3CCCCC3)c3ccccc32)cc1 0.18%
O=C(Nc1cccc(Br)c1)N1CCC(CN2CCCCC2)CC1 0.266%
Cc1ccc(NC(=O)CSc2nc3ncccc3[nH]2)cc1F -8.37%
COc1cccc(N2CCN(C(=O)c3cnn(C(C)(C)C)c3C3CCN(C(=O)OC(C)(C)C)CC3)CC2)c1 5.97%
O=C(c1ccc2c(c1)CCN2S(=O)(=O)c1ccccc1)N1CCN(c2ccc(F)cc2)CC1 -10.3%
O=C(NCc1ccc(Cl)cc1)C(=O)Nc1ccc(Br)cc1 5.41%
CCc1cccc(NC(=O)Cn2c(=O)n(Cc3ccccc3)c(=O)c3c2c2cc(OC)ccc2n3C)c1 -4.93%
CCc1ccccc1NC(=O)Cn1c(-c2nonc2N)nc2ccccc21 4.12%
O=C(NCCc1csc(-c2ccc(Cl)cc2)n1)c1cccs1 2.83%
COC(=O)c1c(NC(=O)CCCOc2ccc(C(C)(C)C)cc2)sc2c1CCC(C)C2 (stereo not given) -0.895%
COc1ccc(NC(=O)/C(C#N)=C/c2ccc(OCc3cc(=O)n4nc(C)sc4n3)cc2)cc1 -9.71%
CC1CCN(C(=O)CSc2nnc(-c3ccccc3Cl)o2)CC1 -2.47%
CCN(C(=O)Cn1nc(Cc2cccnc2)c2ccccc2c1=O)c1ccccc1F 0.534%
O=S(=O)(Nc1ccc2oc3c(c2c1)CCCC3)c1cc(Cl)ccc1Cl 1.38%
Cc1ccc(S(=O)(=O)NCCc2cn3c(C)csc3n2)cc1 0.8%
Cc1cccc(NC(=O)C2CCN(c3nnc(-n4c(C)ccc4C)s3)CC2)c1C -14.7%
COc1ccc(-c2nnc(C3CCN(C(=O)c4ccccc4F)CC3)o2)cc1 8.71%
Cc1ccc2nc(-c3cc(NC(=O)c4ccc5c(c4)OCCO5)ccc3Cl)oc2c1 -22.6%
COc1ccc(NC(=O)CCNS(=O)(=O)c2cccc3nsnc23)cc1 0.26%
COc1ccc(C2Sc3ccccc3NC3=C2C(=O)c2ccccc23)c(OC)c1OC (stereo not given) -4.55%
COc1ccc(-c2onc(C)c2C)cc1S(=O)(=O)N1c2ccccc2CC1C (stereo not given) -5.62%
Cc1ccc(N2CC(c3nc4ccccc4n3CCC3CCCCC3)CC2=O)cc1 (stereo not given) -0.55%
CCOc1ccc(C(CC(=O)O)N2Cc3ccccc3C2=O)cc1OC (stereo not given) -7.92%
COc1ccc(C2c3c(oc4ccc(F)cc4c3=O)C(=O)N2Cc2ccc3c(c2)OCO3)cc1 (stereo not given) -2.25%
N#C/C(=C\c1ccccc1)c1nc(-c2cc3cc(Br)ccc3oc2=O)cs1 -2.48%
CCc1ccc(CNCc2c(C(=O)O)n(Cc3cccc(F)c3)c3cc(OC)ccc23)cc1 0.761%
COC(=O)c1ccccc1NC(=O)NCCc1c(C)nn(C)c1C 0%
Cc1cccc(N(C)C(=O)c2cc(S(=O)(=O)N3CCCC3)cn2C)c1 -1.24%
O=C(Nc1ccccc1Br)C1CCCN(S(=O)(=O)c2cccc3nsnc23)C1 (stereo not given) -2.33%
COc1cccc(N2CCN(S(=O)(=O)c3ccc4[nH]c5c(c4c3)CCCC5)CC2)c1 -11.2%
O=C1CC(c2ccccc2)Cc2[nH]c(=O)c(C(=O)Nc3cccc(F)c3)cc21 (stereo not given) 21.6%
O=C(NCCS(=O)(=O)N1CCN(c2ccccc2)CC1)C(c1ccccc1)c1ccccc1 -0.762%
Cc1cccc(NC(=O)c2c(NC(=O)C(F)(F)F)sc3c2CCCCC3)c1 -12.7%
CCOC(=O)c1cccc(Nc2c3c(nc4ccccc24)CCC3)c1 -27.7%
O=C(CSc1nc2c([nH]c3ccccc32)c(=O)n1-c1ccc(F)cc1)N1CCCCC1 -1.93%
CCc1ccc(OCC(=O)N(Cc2ccc(Cl)cc2)C2CCS(=O)(=O)C2)cc1 (stereo not given) -4.24%
Cc1noc(C)c1S(=O)(=O)N1CCC(C(=O)N2CCN(c3ccccc3)CC2)CC1 2.75%
COc1ccccc1NC(=O)Cn1nnc(C(=O)NCc2ccc3c(c2)OCO3)c1N -16.2%
Cn1c(NCCO)nc2c1c(=O)n(Cc1ccccc1Cl)c(=O)n2C 2.76%
CCC(C)NC(=O)Cn1c(=O)cc(-c2ccccc2)c2c(C)nn(C)c21 (stereo not given) 0%
COc1ccccc1C(=O)Nc1cc2c(cc1N1CCOCC1)n(C)c(=O)n2C 1.09%
COc1cccc(Oc2nc3c(c(=O)n(Cc4ccccc4F)c(=O)n3C)n2C)c1 3.61%
COc1cc2[nH]c(=O)n(CCCCCC(=O)N3CCN(c4cccc(C(F)(F)F)c4)CC3)c(=O)c2cc1OC -7.96%
Cc1cccc(NS(=O)(=O)c2ccc3oc(=O)c4ncn(C)c4c3c2)c1C -0.515%
COc1cccc(N2CCN(C(=O)c3c(C)oc4ncnc(N5CCOCC5)c34)CC2)c1 4.01%
Cc1c(C(=O)N(C)C)sc2c1c(=O)n(-c1ccc(Cl)c(Cl)c1)c(=O)n2CC(=O)Nc1cccc(C(F)(F)F)c1 -2.39%
CC(C)c1ccc(NC(=O)CN(C)S(=O)(=O)c2ccc3c(c2)c(=O)n(C)c(=O)n3C)cc1 -1.72%
CCn1c(=O)n(CC)c2cc(N3CCCCC3)c(NC(=O)Nc3ccccc3Cl)cc21 -13.3%
CCOC(=O)Cc1ccc(NC(=O)NCc2ccc3c(c2)CCN3C(=O)CC)cc1 -7.16%
O=C(CCS(=O)(=O)c1cc(Br)cc2c1N(C(=O)C1CC1)CC2)Nc1ccc(Br)cc1F -20.5%
CCc1ccccc1N(C)C(=O)Cn1cnc2sc(C)c(S(=O)(=O)N3CCN(c4ncccn4)CC3)c2c1=O 1.74%
COc1ccc(NC(=O)Cn2c(=O)oc3cc(S(=O)(=O)N4CCC(C)CC4)ccc32)c(OC)c1 -4.39%
Cc1ccc(NS(=O)(=O)c2cc(Br)cc3c2N(C(=O)C2CC2)CC3)cc1C -12.5%
CCCS(=O)(=O)c1c(Nc2ccccc2C)sc(C(=O)c2ccccc2)c1N -6.7%
COC(=O)c1ccc(Cn2nnc3sc4c(c3c2=O)CCC(C)C4)cc1 (stereo not given) -12.8%
CCOc1ccccc1CNC(=O)CCn1ccc2cc(S(=O)(=O)N3CCC(C)CC3)ccc21 -16.6%
COc1ccc2c(CNCCc3cccs3)c(C(=O)O)n(Cc3ccccc3)c2c1 -1.27%

Source: PubChem BioAssay AID493208 (National Center for Advancing Translational Sciences (NCATS), 2011)
